Results: the antibiotic and cytotoxicity screens of Wong et al. (2023)
Some of the results follow.

Tests used:
HSkMC = human skeletal muscle cells; assay: cytotoxicity call (relative viability < 0.9); details: 10 µM
HepG2 = assay: cytotoxicity call (relative viability < 0.9); details: 10 µM
S. aureus RN4220 = assay: growth inhibition call (relative growth <= 0.2); details: 50 µM

SMILES	cytotoxicity call (HSkMC)	cytotoxicity call (HepG2)	growth inhibition call (S. aureus RN4220)
COC(=O)[C@@]12CCC(C)(C)C[C@@H]1[C@@H]1C(=O)C=C3[C@]4(C)C=C(C#N)C(=O)C(C)(C)[C@H]4CC[C@]3(C)[C@@]1(C)CC2	active	active	inactive
C[C@H](CO)N1C[C@H](C)[C@H](CN(C)C(=O)Nc2cccc3ccccc23)Oc2c(NC(=O)C3CCCCC3)cccc2C1=O	inactive	inactive	inactive
CCO[C@H]1[C@H]2CC[C@@H]1N(C(=O)CS(C)(=O)=O)CCO2	inactive	inactive	inactive
CS(=O)(=O)Nc1ccc2oc3c(OC(F)F)ccc(C(=O)Nc4c(Cl)cncc4Cl)c3c2c1	inactive	inactive	inactive
C[C@H](CO)N1C[C@H](C)[C@@H](CN(C)C(=O)Nc2cccc3ccccc23)OCCCC[C@H](C)Oc2ccc(NS(=O)(=O)c3ccc(F)cc3)cc2C1=O	inactive	inactive	inactive
COc1ccc(C2CC(=O)c3c(O)cc(O)cc3O2)cc1O (stereo not given)	inactive	inactive	inactive
COc1ccccc1C#Cc1cnc2c(c1)C(=O)N([C@@H](C)CO)C[C@H](C)[C@@H](CN(C)S(=O)(=O)c1cn(C)cn1)O2	inactive	inactive	inactive
Cc1ccc(S(=O)(=O)Nc2ccc3c(c2)C(=O)N([C@@H](C)CO)C[C@H](C)[C@@H](CN(C)Cc2ccccc2)OCCCC[C@@H](C)O3)cc1	inactive	inactive	inactive
C[C@H]1CN([C@@H](C)CO)C(=O)CCCn2nncc2CO[C@H]1CN(C)S(=O)(=O)c1ccc(C#N)cc1	inactive	inactive	inactive
C[C@@H]1CN([C@@H](C)CO)C(=O)CCCn2cc(nn2)CO[C@H]1CN(C)C(=O)Nc1ccc2c(c1)OCO2	inactive	inactive	inactive
C[C@@H]1CN([C@H](C)CO)C(=O)c2cc(NS(=O)(=O)c3cn(C)cn3)ccc2O[C@@H]1CN(C)Cc1ccc(C(=O)Nc2ccccc2N)cc1	inactive	inactive	inactive
CN(C)CCCC1(c2ccc(F)cc2)OCc2cc(C#N)ccc21.O=C(O)C(=O)O (stereo not given)	inactive	inactive	inactive
C[C@@H]1CN([C@H](C)CO)C(=O)c2cc(NC(=O)Nc3ccc(F)cc3)ccc2O[C@@H](C)CCCCO[C@@H]1CN(C)S(=O)(=O)c1ccc(F)cc1	inactive	inactive	inactive
Cc1ccc(S(=O)(=O)Nc2ccc3c(c2)CC(=O)N([C@@H](C)CO)C[C@@H](C)[C@@H](CN(C)C(=O)Nc2cccc4ccccc24)O3)cc1	inactive	inactive	inactive
C[C@H]1CN([C@@H](C)CO)C(=O)Cc2cc(NC(=O)Nc3ccc4c(c3)OCO4)ccc2O[C@H]1CN(C)S(=O)(=O)c1cn(C)cn1	inactive	inactive	inactive
CCOc1cc(N)ncn1	inactive	inactive	inactive
CCS(=O)(=O)Nc1ccc2c(c1)C(=O)N(C)[C@H]1CC[C@@H](CC(=O)NCc3ccccc3F)O[C@@H]1CO2	inactive	inactive	inactive
C[C@H]1CN([C@@H](C)CO)C(=O)c2cc(C#Cc3cccnc3)cnc2O[C@@H]1CN(C)S(=O)(=O)c1ccccc1F	inactive	inactive	inactive
CO[C@@H]1CN(C)C(=O)c2cc(NC(=O)Nc3ccc4c(c3)OCO4)ccc2OC[C@@H](C)N(C(C)=O)C[C@H]1C	inactive	inactive	inactive
O=C(OOC(=O)c1ccccc1)c1ccccc1	inactive	active	inactive
CN1CCN(C(=O)C[C@H]2C[C@@H]3c4cc(NC(=O)c5ccc6c(c5)OCO6)ccc4O[C@@H]3[C@@H](CO)O2)CC1	inactive	inactive	inactive
O=C(C[C@@H]1CC[C@H]2[C@@H](COC[C@H](O)CN2C(=O)Nc2ccc(Cl)c(Cl)c2)O1)NCc1ccncc1	inactive	inactive	active
CC(C)c1nc(CN(C)C(=O)N[C@H](C(=O)N[C@@H](Cc2ccccc2)C[C@H](O)[C@H](Cc2ccccc2)NC(=O)OCc2cncs2)C(C)C)cs1	inactive	inactive	inactive
CC(C)NC(=O)N(C)C[C@@H]1Oc2cc(C#Cc3cccc(F)c3)ccc2S(=O)(=O)N([C@H](C)CO)C[C@H]1C	inactive	inactive	inactive
CC[C@@H](C)[C@H]1NC(=O)NC1=O	inactive	inactive	inactive
C=C1C[C@@]23CC[C@@H]4[C@@](C)(CCC[C@@]4(C)C(=O)OC)[C@H]2CC[C@@H]1C3	inactive	inactive	inactive
C[C@H](CO)N1C[C@H](C)[C@@H](CN(C)S(=O)(=O)c2cccs2)Oc2ccc(NC(=O)c3ccncc3)cc2CC1=O	inactive	inactive	inactive
C[C@@H]1CN([C@@H](C)CO)C(=O)c2cccc(NS(=O)(=O)c3ccc(Cl)cc3)c2O[C@@H]1CN(C)Cc1ccc(C(F)(F)F)cc1	inactive	active	inactive

SMILES	cytotoxicity call (HSkMC)	cytotoxicity call (HepG2)	growth inhibition call (S. aureus RN4220)
Cc1ccc(S(=O)(=O)Nc2cccc3c2O[C@@H](CN(C)S(=O)(=O)c2c(C)noc2C)[C@@H](C)CN([C@H](C)CO)C3=O)cc1	inactive	inactive	inactive
C[C@H]1CN([C@@H](C)CO)C(=O)c2cc(NC(=O)Nc3cccc4ccccc34)ccc2O[C@H]1CN(C)S(=O)(=O)c1ccccc1	inactive	inactive	inactive
O=C(C[C@@H]1C[C@@H]2c3cc(NC(=O)NC4CCCC4)ccc3O[C@@H]2[C@H](CO)O1)NCc1ccc(-c2ccccc2)cc1	inactive	inactive	inactive
C[C@@H]1CCCCO[C@@H](CN(C)C(=O)c2ccccc2)[C@H](C)CN([C@H](C)CO)C(=O)c2cc(NC(=O)Cc3ccccc3)ccc2O1	inactive	inactive	inactive
COc1ccc(NC(=O)Nc2ccc3c(c2)C(=O)N([C@@H](C)CO)C[C@@H](C)[C@H](CN(C)Cc2ccc(C(F)(F)F)cc2)O3)cc1	inactive	inactive	inactive
Cn1cncc1C(=O)O	inactive	inactive	inactive
C[C@@H]1CCCCO[C@@H](CN(C)CC2CCCCC2)[C@@H](C)CN([C@@H](C)CO)C(=O)c2cc(NS(=O)(=O)c3cccs3)ccc2O1	inactive	inactive	inactive
C[C@H](CO)N1C[C@H](C)[C@H](CN(C)Cc2ccc3c(c2)OCCN3C)OCc2ccccc2-c2c(n(C)c3ccccc23)C1=O	inactive	inactive	inactive
COc1ccc(NC(=O)Nc2ccc3c(c2)C(=O)N([C@@H](C)CO)C[C@@H](C)[C@@H](CN(C)C(=O)Nc2ccc(OC)cc2)OCCCC[C@@H](C)O3)cc1	inactive	inactive	inactive
CC(C)CC#Cc1cnc2c(c1)C(=O)N([C@H](C)CO)C[C@@H](C)[C@H](CN(C)C(=O)CN1CCOCC1)O2	inactive	inactive	inactive
Cc1noc(C)c1NC(=O)Nc1ccc2c(c1)C(=O)N([C@H](C)CO)C[C@@H](C)[C@H](CN(C)C(=O)NC1CCCCC1)OCCCC[C@@H](C)O2	inactive	inactive	inactive
C[C@@H]1CN([C@H](C)CO)C(=O)c2cc(NS(=O)(=O)c3ccc(F)cc3)ccc2O[C@@H](C)CCCCO[C@@H]1CN(C)C(=O)NC1CCCCC1	inactive	inactive	inactive
COc1ccc2c3c(n(c2c1)C)[C@@H](CO)N(C[C@]13CN(C1)C(=O)Nc1cccc(c1)F)C(=O)C1CCOCC1	inactive	inactive	inactive
O=C(C[C@H]1C=C[C@H](NC(=O)c2ccc(F)cc2)[C@@H](CO)O1)NCc1ccncn1	inactive	inactive	inactive
C[C@H]1CN([C@@H](C)CO)S(=O)(=O)c2ccc(Br)cc2O[C@H]1CN(C)S(=O)(=O)c1ccc(F)cc1	inactive	inactive	inactive
CC(C)NC(=O)N(C)C[C@@H]1Oc2ccc(NC(=O)Nc3ccc4c(c3)OCO4)cc2CC(=O)N([C@@H](C)CO)C[C@H]1C	inactive	inactive	inactive
C=CC[C@@H](CC(=O)N(CCO)Cc1ccccc1)C(=O)NC[C@H](OC(=O)[C@@H](CC=C)Cc1ccc(F)cc1)c1ccccc1	active	inactive	inactive
C[C@@H]1CN([C@H](C)CO)C(=O)CCCn2nncc2CO[C@H]1CN(C)S(=O)(=O)c1ccc(C#N)cc1	inactive	inactive	inactive
O=C(CCCCCNC(=O)OC[C@H]1C(=O)O[C@@H](Cc2ccccc2)[C@H]2[C@H]3C(=CC(=O)[C@@H]3C3CC3)CN21)NO	inactive	inactive	inactive
C[C@H](CO)N1C[C@H](C)[C@H](CN(C)CC2CCCCC2)OCCCC[C@H](C)Oc2ccc(NC(=O)CCCCCC(=O)Nc3ccccc3N)cc2C1=O	inactive	inactive	inactive
CSc1ccc(-c2nnn(CC(N)=O)n2)cc1	inactive	inactive	inactive
C[C@H](CO)N1C[C@H](C)[C@@H](CN(C)C(=O)C2CC2)OCc2cn(nn2)CCCC1=O	inactive	inactive	inactive
CC(=O)[C@]12O[C@@]3(COC[C@H](c4ccccc4)N3C1=O)[C@H]1C(=O)N(C)C(=O)[C@H]12	inactive	inactive	inactive
O=C(C[C@H]1CC[C@H]2[C@@H](COC[C@@H](O)CN2C(=O)c2cnccn2)O1)NCc1ccc(Oc2ccccc2)cc1	inactive	inactive	inactive
COc1ccc(S(=O)(=O)Nc2ccc3c(c2)C(=O)N([C@@H](C)CO)C[C@H](C)[C@@H](CN(C)Cc2ccc(C(F)(F)F)cc2)OCCCC[C@@H](C)O3)cc1	inactive	active	inactive
C[C@@H]1CN([C@H](C)CO)C(=O)Cc2cc(NS(C)(=O)=O)ccc2O[C@@H]1CN(C)S(=O)(=O)c1ccccc1	inactive	inactive	inactive
C[C@H]1CN([C@@H](C)CO)C(=O)c2cc(NC(=O)Nc3cccc4ccccc34)ccc2O[C@@H]1CN(C)S(=O)(=O)c1ccc(Cl)cc1	inactive	inactive	inactive
